In the supplement of paper PMC10681739:
± gives the standard deviation of the averaged measurements. The full ranking holds about 4,100 sequences; the median of “arbitrary fluorescence units” is about 780, and the highest 2% start at about 22,000. Some of the results follow.

The sequences below were run against T1, ETS1 (UniProt P14921) (assay: ETS1 binding intensity (PBM fluorescence), ETS1 alone (arbitrary fluorescence units); higher = stronger binding). Conditions: ETS1 concentration 1 nM; RUNX1 concentration 0 nM.
T1 sequence: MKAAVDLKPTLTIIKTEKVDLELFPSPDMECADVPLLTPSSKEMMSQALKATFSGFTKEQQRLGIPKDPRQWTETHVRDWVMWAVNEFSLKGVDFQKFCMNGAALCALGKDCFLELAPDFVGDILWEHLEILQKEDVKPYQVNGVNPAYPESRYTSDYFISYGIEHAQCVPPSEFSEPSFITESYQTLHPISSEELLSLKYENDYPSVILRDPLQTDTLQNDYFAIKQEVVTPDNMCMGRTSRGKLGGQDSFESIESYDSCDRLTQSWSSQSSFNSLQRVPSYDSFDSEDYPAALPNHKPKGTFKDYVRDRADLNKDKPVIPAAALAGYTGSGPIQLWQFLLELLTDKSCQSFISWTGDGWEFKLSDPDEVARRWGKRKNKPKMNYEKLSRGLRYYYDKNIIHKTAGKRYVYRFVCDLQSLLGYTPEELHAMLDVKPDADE
Procedure, shortened: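 Double-stranded Agilent 4 × 180k arrays held 36-bp genomic probes whose RUNX1 partner site was mutated, and these were incubated with 1 nM full-length recombinant human ETS1 in the absence of RUNX1 under standard PBM protocols. Bound protein was labelled with anti-ETS1 antibody (Cell Signaling Technology 14069) plus an Alexa488-conjugated secondary and read on a GenePix 4400A, with four spots printed per sequence. Binding level is reported as raw spot fluorescence intensity summarised over replicate spots.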

| Sequence | ETS1 binding intensity |
| --- | --- |
| TGAAAGCCAGGGAAGTGGCTCCCAGAATAAGCCAAG | 487 |
| GCCGCGCTTTCCGGAGCTGGTCGCCGAAGCGAACAA | 2170 |
| AGCTGTAGCTTCAGTGTTTCTGATTTCCTCTTGTTG | 420 |
| CTGGTAGAAAAGGAAGCAGGTTGGGGTGAGCATTTA | 552 |
| TATTTCCTGTGCACAGAAGCAGCTGGGCCGAAGAGT | 34400 |
| CGAAATCACATGAAACCAGAGTAGCTTCCGTACAGG | 524 |
| CCAGCACGTGGGCTCTGAACCGGAAGCAACAGGCTC | 3250 |
| GACATATCCTGCATTCTCAGAAAAATCACAGGCTAG | 8110 |
| GCAAACGCACTCCGAAAGCTCTGGGCCGGAAGAGTC | 413 |
| CCTCCTCTTCCTCCCCACTCTGCACATACGGCTGGG | 1030 |
| CCCCAGCGGATTTCCAGCGTACGCACAAGTTCCGCC | 578 |
| CGGGTCCTGAGGGCGCTGGCGGAAAGAGGCGAGGCG | 332 |
| TCTCCTGTGTCCACGGCTGAAAACCTACATCCCGTC | 484 |
| AGAAAGAAAAGCCAAAGTGCCTCCAGGAAGTAAACA | 470 |
| TGTTTGCTGTTTAGACCCCAAAGATTCCTGTTGGTA | 461 |
| TACATAGGCGGAAGTGGCCTGAGGGCGCCGGAGTTG | 6290 |
| ACATGAGGAAACTGAAGCATAGAGAGGGTGGATAAC | 474 ± 120 |
| CCCCTGCAGGCCGCCGCTGCGCCCGTGCATCCGTCA | 358 |

| Sequence | ETS1 binding intensity |
| --- | --- |
| TAAATCCACCTCAGTACAAATGAACTTCCTTTTCAA | 737 |
| TAAGTGTTGGGGTTTTTTAGTTTCCTGTTCAGTTGC | 1220 |
| CAGTGAACAGTTTCCTGTTCCTGTGATTTTGACTTT | 7430 |
| TGTTGTGTAGTTTCAGAGATACTTCCTTGGGTTGCC | 510 |
| TTCAGGTGACTTCCGGCCGGACCTCTGAGGACGCGG | 24100 ± 4200 |
| GCGGGGCGGGGTACAGCGGAGTCATCCTGGCAACCC | 583 |
| TTTGTTGTTCCGGGTGCGAGGCGGCCGAAGCTTCCA | 940 |
| GGCCAAGGAAGCGGCCCCCTAAATCCGCTCCCGGGA | 425 ± 5 |
| CCTCATTTCCGGGCTGTTTGCGCGCAAGCCCTCATC | 19800 |
| GTGACTCCACGGTGTACAGCTTCCTTCACCCCACTT | 498 |
| CACCCGCCCCCCGGAAGTGCCGGTCGTTGGGCTCCG | 5380 |
| GTGCAGGCCGGAAGGAAAAGGGTTCTGGGGCTCATT | 1570 |
| GCAGGCGTGCGCTTCCGCTCCAACCGGCGCACTTCG | 6480 |
| CGATTCCGGATTGGTCCAATTCCAGCGCCGAAGCCC | 673 |
| GCGCACTTCCGGGCTGGTGAACGCGTTGACGTCACC | 35400 |
| GAAACTTCTCAAGGAAATAGCTGTGATAAACAATAC | 459 |
| CATTATTAACCTTCCGGCAAATCCCCAGAGCCGCCA | 2460 |
